Reference: PubChem BioAssay AID1347165 (National Center for Advancing Translational Sciences (NCATS), 2019)
Out of some 220,000 compounds screened, about 5,700 (2.6%) were called active. Inconclusive means that the source gave no clear call. Such entries were picked first, then a sample of the others. The call rests on the fitted dose curve; in most records, active means well fitted inhibition curve with a large enough effect; inconclusive means small, poorly fitted or top-dose-only effect; inactive means no such curve, though single readings can be large or run the other way. Potencies of inconclusive entries are doubtful fits and often do not repeat.
Further: nearly all actives have a fitted effect of over 70% in size.
Potency means the concentration at half of the fitted maximal effect; tags describe the fitted curve by direction and shape.
Wherever activity change, negative = inhibition is given: 0% is about no effect.

What follows are compounds tested against Lysine-specific demethylase 5B (Homo sapiens) (UniProt Q9UGL1) (assay: Primary screen for KDM5B Histone Demethylases FDH-coupled qHTS). Conditions: FDH-coupled NADH fluorescence (FDH is formaldehyde dehydrogenase); activity change, negative = inhibition: at 57.7 µM (top of the series) unless noted.
Chain of UniProt Q9UGL1 (Q9UGL1 whole entry, looked up): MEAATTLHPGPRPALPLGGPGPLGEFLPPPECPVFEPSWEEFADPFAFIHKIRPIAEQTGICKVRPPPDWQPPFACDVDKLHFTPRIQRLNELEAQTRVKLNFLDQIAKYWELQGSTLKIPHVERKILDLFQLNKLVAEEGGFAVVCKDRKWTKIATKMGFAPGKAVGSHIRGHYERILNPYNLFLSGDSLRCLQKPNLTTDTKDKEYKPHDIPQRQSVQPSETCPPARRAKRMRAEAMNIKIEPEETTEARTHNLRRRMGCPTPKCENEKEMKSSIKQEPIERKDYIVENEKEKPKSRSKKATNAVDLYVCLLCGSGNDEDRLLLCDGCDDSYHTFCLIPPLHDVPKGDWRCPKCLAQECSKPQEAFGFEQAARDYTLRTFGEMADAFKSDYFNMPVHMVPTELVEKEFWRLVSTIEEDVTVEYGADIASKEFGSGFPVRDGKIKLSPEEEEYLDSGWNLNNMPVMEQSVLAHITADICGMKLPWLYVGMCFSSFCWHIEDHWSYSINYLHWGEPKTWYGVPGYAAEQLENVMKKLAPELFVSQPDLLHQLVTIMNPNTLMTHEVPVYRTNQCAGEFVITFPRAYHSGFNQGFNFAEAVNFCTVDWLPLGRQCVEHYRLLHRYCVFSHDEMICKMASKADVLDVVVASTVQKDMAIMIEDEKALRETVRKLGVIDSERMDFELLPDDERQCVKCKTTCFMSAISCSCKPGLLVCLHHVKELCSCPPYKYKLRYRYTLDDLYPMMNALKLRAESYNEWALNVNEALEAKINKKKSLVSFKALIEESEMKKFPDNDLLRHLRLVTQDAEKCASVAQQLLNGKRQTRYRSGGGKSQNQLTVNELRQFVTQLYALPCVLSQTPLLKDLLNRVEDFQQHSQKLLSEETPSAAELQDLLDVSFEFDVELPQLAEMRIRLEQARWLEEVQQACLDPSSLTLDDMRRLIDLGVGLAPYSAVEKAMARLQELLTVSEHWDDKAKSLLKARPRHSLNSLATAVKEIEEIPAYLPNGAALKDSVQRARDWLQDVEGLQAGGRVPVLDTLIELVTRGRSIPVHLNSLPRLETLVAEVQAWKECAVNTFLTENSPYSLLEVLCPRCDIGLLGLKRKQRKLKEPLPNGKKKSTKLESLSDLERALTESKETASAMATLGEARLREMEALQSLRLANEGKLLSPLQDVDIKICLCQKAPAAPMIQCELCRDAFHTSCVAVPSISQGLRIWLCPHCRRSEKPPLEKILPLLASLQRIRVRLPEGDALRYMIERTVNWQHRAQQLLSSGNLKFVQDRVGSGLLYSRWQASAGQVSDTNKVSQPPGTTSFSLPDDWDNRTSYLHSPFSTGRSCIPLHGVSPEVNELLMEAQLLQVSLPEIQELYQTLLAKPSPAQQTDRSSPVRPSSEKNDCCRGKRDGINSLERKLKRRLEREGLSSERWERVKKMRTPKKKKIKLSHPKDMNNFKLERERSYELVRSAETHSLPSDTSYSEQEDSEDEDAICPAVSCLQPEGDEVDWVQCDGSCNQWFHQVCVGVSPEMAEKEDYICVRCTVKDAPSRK
Summary of the method: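 KDM5BΔAP (200 nM final) in 50 mM HEPES pH 7.5, 0.01% Tween-20 was preincubated 10 min at RT with compound over a concentration range. Substrate mix (H3K4me3 12.5 µM, α-KG 25 µM, Fe²⁺, ascorbate, NAD⁺, FDH) was added, and NADH fluorescence change over 30 min gave dose-response curves.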
For CCn1nc(C)c(CNC(=O)C2(CCO)CC23CCOCC3)c1C (configuration not stated), the Potency was “inactive”.
In the case of c1ccc(-n2cc(CN(Cc3ccccn3)CC3CCCO3)nn2)cc1 (configuration not stated), the Potency was inconclusive: 22.4 µM [inhibitor, partial curve].
With Cc1ccsc1C(=O)N1CCC2(CC1)NC(=O)N(c1ccccc1)N2 the Potency was inconclusive: 25.1 µM [inhibitor, single point].
In the case of COc1ccc(CCNC(=O)c2ccc3c(c2)NC(=O)C(C(C)C)N3)cc1OC (configuration not stated), the Potency was inconclusive: 20 µM [inhibitor, partial curve, poor fit].
In the case of Cc1cccc(NC(=O)c2ncoc2-c2cccc(Cl)c2)c1C, the Potency was “inactive”.
In the case of Cc1cc2ncc(C(=O)N3CCCn4nc(CCC(=O)O)cc4C3)c(=O)n2[nH]1, the Potency was inconclusive: 17.8 µM [inhibitor, partial curve, poor fit].
Cc1nc([C@H]2CCN(Cc3ccccc3)C[C@H]2NC(=O)C2CCOCC2)n[nH]1 was tested, and the Potency was “inactive”.
CC(C)c1ccccc1NC(=O)CN1C(=O)c2cccc3cccc1c23 was tested, and the Potency was inconclusive: 39.8 µM [inhibitor, partial curve, poor fit].
For Cc1nc(N2CCCC2)c2c(C(=O)N3CCN(c4cccc(C)c4C)CC3)c(C)oc2n1, the Potency was “inactive”.
For CCNC(=O)c1cc(-c2cccs2)nc2ccccc12, the Potency was inconclusive: 14.1 µM [inhibitor, partial curve, poor fit].
In the case of N#Cc1cccnc1NCCNc1cccc2ccccc12, the Potency was inconclusive: 10 µM [inhibitor, partial curve, poor fit].
For CC(C)C(=O)NCC1CN(Cc2ccccc2)C(=O)c2c(ccnc2-c2ccc(OCC(=O)O)cc2)O1 (configuration not stated), the Potency was inconclusive: 22.4 µM [inhibitor, partial curve].
COc1ccccc1C(=O)N1CCc2c(c(-c3nncn3C(C)C)nn2C)C1 was tested, and the Potency was inconclusive: 22.4 µM [inhibitor, partial curve, poor fit].
For COc1cc(/C=C(/C#N)c2nc3ccccc3[nH]2)ccc1OC(F)F, the Potency was inconclusive: 35.5 µM [inhibitor, single point].
For CC(=O)NC1(C)CCN(Cc2cnc(-c3ccc4c(ccn4C)c3)s2)CC1, the Potency was active: 35.5 µM.
In the case of COc1ccccc1OCCNC(=O)c1cn2ccnc(-c3ccc(C)cc3)c2n1, the Potency was active: 28.2 µM.
O=C(N/N=C/c1ccc(O)c(O)c1)C1CC1 was tested, and the Potency was inconclusive: 20 µM [inhibitor, partial curve, poor fit].
In the case of CC(C)(C)c1nnc([C@H]2CCN(Cc3cnc4ccccc4c3)C2)o1, the Potency was active: 35.5 µM.
COC[C@H]1CCCN1C[C@@H]1C=C(C)[C@H](Cc2nnc(-c3cccnc3)o2)C[C@H]1C(C)C was tested, and the Potency was inconclusive: 35.5 µM [inhibitor, partial curve].
Cc1ccc2cc(C(=O)O)[nH]c2c1 was tested, and the Potency was inconclusive: 28.2 µM [inhibitor, single point].
Cc1ccc(-n2ncc3c(NC4CCCCC4)ncnc32)cc1 was tested, and the Potency was inconclusive: 50.1 µM [inhibitor, single point].
For CN1CC(=O)N(C2CCCNCC2)Cc2c1ncnc2N1CCc2ccccc2C1 (configuration not stated), the Potency was inconclusive: 50.1 µM [inhibitor, partial curve, poor fit].
With Cc1ccc(Cc2nc3ccccc3nc2SCC(=O)Nc2cccc(C(F)(F)F)c2)cc1 the Potency was inconclusive: 22.4 µM [inhibitor, single point].
CCOc1ccccc1-c1noc(-c2nnn3c2COC(c2ccc(OC)cc2)C3)n1 (configuration not stated) was tested, and the Potency was active: 17.8 µM.
For O=C(CN1CCCc2nc(-c3ccncc3)ncc2C1=O)N1CCc2ccccc2C1, the Potency was inconclusive: 39.8 µM [inhibitor, single point].
In the case of COc1ccc(C2=NN(C(=O)c3ccccc3)C(c3ccc(OC)c(OC)c3)C2)c(O)c1 (configuration not stated), the Potency was inconclusive: 31.6 µM [inhibitor, single point].
For CCc1ccccc1NC(=O)c1cc2cccc(OC)c2oc1=O, the Potency was “inactive”.
In the case of c1ccc(-c2cc(CC3(NCc4cnc5ccccc5c4)COC3)no2)nc1, the Potency was inconclusive: 28.2 µM [inhibitor, single point].
For Cc1ccc2c(c1)c1c(c(=O)n(-c3ccccc3C)c(=O)n1CC(=O)NCCC1=CCCCC1)n2C, the Potency was inconclusive: 2.24 µM [inhibitor, full curve, poor fit].
With CCc1c(C(=O)Nc2cccc(OC)c2)cnn1-c1ccc(OC)nn1 the Potency was “inactive”.
For O=C(Nc1ccc(F)c(F)c1)c1ccc(Cn2ccn3nc4c(c3c2=O)CCCC4)cc1, the Potency was active: 25.1 µM.
With O=C(NCC1CCOCC1)c1cnccn1 the Potency was “inactive”.
Cn1cc(/C=C2/CC(=O)N(c3ccc(C(=O)O)cc3)C2=O)c2ccccc21 was tested, and the Potency was inconclusive: 28.2 µM [inhibitor, single point].
For CCC1CCCCN1C(=O)C1=CC(c2ccc(C)cc2)=NS(=O)(=O)N1C (configuration not stated), the Potency was “inactive”.
In the case of CCC(C)NC(=O)c1sc2nc(C)c(C(=O)Nc3ccc(C)cc3C)c(-c3ccc(Cl)cc3)c2c1N (configuration not stated), the Potency was inconclusive: 7.08 µM [inhibitor, partial curve, poor fit].
With CC(C)(C)C(=O)NCCCC(=O)NCCc1cccs1 the Potency was “inactive”.
With O=C(c1cccc([N+](=O)[O-])c1)N1CCc2c(c3ccccc3n2CC2CC2)C1 the Potency was “inactive”.
COc1cccc(CNC(=O)N2c3ccccc3CC2c2noc(C3CCOCC3)n2)c1 (configuration not stated) was tested, and the Potency was “inactive”.
With O=C(O)CCC(=O)N[C@H]1CCN2C(=O)c3cc(/C=C/c4ccccc4)ccc3NC(=O)[C@H]12 the Potency was active: 39.8 µM.
In the case of Cc1ccc(N=c2scc(-c3ccccc3)n2-c2cccc(C)c2)cc1, the Potency was “inactive”.
In the case of O=C(Nc1cnc(-c2ccccc2)nc1)c1ccco1, the Potency was inconclusive: 25.1 µM [inhibitor, single point].
For CC(=O)N1CCC([C@@H]2CN(Cc3cccnc3)C[C@H]2CO)CC1, the Potency was inconclusive: 14.1 µM [inhibitor, partial curve].
In the case of COc1ccc(-c2ccc3c(c2)C(=O)N2CCN(C(=O)c4cccnc4)C[C@@H]2C(=O)N3)c(OC)c1, the Potency was “inactive”.
For C=CCN(Cc1nc(-c2ccccc2)no1)C(=O)c1ccoc1C, the Potency was “inactive”.
O=C(O)c1ccc(Br)cc1C(=O)O was tested, and the Potency was “inactive”.
For O=C(c1ccc(F)c(F)c1)N1CCC2(CC1)N=C(c1cccc(Br)c1)NO2, the Potency was inconclusive: 12.6 µM [inhibitor, partial curve].
With COc1ccc(C(=O)Nc2ccc(-n3nncc3-c3ccc(OC)c(OC)c3)cc2)cc1 the Potency was inconclusive: 25.1 µM [inhibitor, partial curve, poor fit].
Cc1ccc(-c2nc(CS(=O)(=O)CC3CCCO3)co2)c(C)c1 (configuration not stated) was tested, and the Potency was “inactive”.
In the case of O=C(NC[C@H]1O[C@@H](CO)[C@@H](O)[C@H]1N1CCN(c2ccc(F)cc2)CC1)c1cccc(F)c1, the Potency was inconclusive: 35.5 µM [inhibitor, single point].
For CCc1ccc(NC(=O)c2cc3c(=O)n(Cc4cccs4)ccc3nc2C)cc1, the Potency was inconclusive: 25.1 µM [inhibitor, single point].
For O=C(N[C@@H]1CN(c2ncccn2)C[C@H]1CO)c1c(F)cccc1F, the Potency was inconclusive: 12.6 µM [inhibitor, partial curve].
For CCN1c2cc(C(=O)Nc3cccc(C(C)C)c3)ccc2C(=O)N2CCCCCC21 (configuration not stated), the Potency was inconclusive: 28.2 µM [inhibitor, partial curve, poor fit].
CC(=O)N1CCN(C(=O)[C@@H]2Cc3cn(Cc4cc(C)on4)c4cccc(c34)[C@H](CC(C)C)N2)CC1 was tested, and the Potency was inconclusive: 15.8 µM [inhibitor, single point].
With CC(C)(C)C1CCC2(CC1)NC(=O)N(CC(=O)Nc1ccccc1)C2=O (configuration not stated) the Potency was “inactive”.
With CCN(CCCNC(=O)c1cc2c(=O)n(CC)c3ccccc3c2s1)c1cccc(C)c1 the Potency was inconclusive: 8.91 µM [inhibitor, partial curve, poor fit].
In the case of Cc1ccc2c(=O)cc(C(=O)N(Cc3ccccc3)Cc3ccco3)oc2c1, the Potency was “inactive”.
With Cc1ccccc1-c1nc(CS(=O)(=O)CC(=O)NC(C)c2ccccc2)c(C)o1 (configuration not stated) the activity change, negative = inhibition was inconclusive: -32.1% [inhibitor].
In the case of Oc1ccc(O)c(C2C[C@@H]3CC[C@H]2C3)c1 (some centres not stated), the Potency was inconclusive: 28.2 µM [inhibitor, partial curve, poor fit].
In the case of CNC(=O)c1cc2cc(-c3c(C)noc3C)nc(-c3cccc(CO)c3)c2o1, the Potency was active: 35.5 µM.
For CCOC(=O)N1CCN([C@H]2CS(=O)(=O)C[C@@H]2S(=O)(=O)c2ccc(C)cc2)CC1, the Potency was “inactive”.
COc1ccc2c(c1)c(=O)c(S(=O)(=O)c1ccc(C)c(C)c1)cn2CC(=O)Nc1ccccc1 was tested, and the Potency was inconclusive: 2.51 µM [inhibitor, full curve, poor fit].
With O=c1c2c(n(Cc3cccnc3)n1CCc1ccccc1)CN(CC1CCOC1)CC2 (configuration not stated) the Potency was active: 35.5 µM.
COCCCNc1nc2ccccc2nc1NS(=O)(=O)c1cccc(C)c1 was tested, and the Potency was inconclusive: 28.2 µM [inhibitor, partial curve, poor fit].
NCc1ccc2c3c1CCCN3CCC2 was tested, and the Potency was inconclusive: 22.4 µM [inhibitor, partial curve, poor fit].
COc1ccc(-c2noc(C(=O)O)c2[C@@H](C)NC(=O)c2cccn2C)cc1 was tested, and the Potency was active: 39.8 µM.
For COc1ccc(CCNC(=O)CCc2c(C)nc3c(c(C)nn3-c3ccc(C)cc3)c2C)c(OC)c1, the Potency was inconclusive: 3.16 µM [inhibitor, full curve, poor fit].
With COc1ccc(C2Cn3nnc(C(=O)N4CCN(C(=O)c5cccc(C)c5)CC4)c3CO2)cc1 (configuration not stated) the Potency was inconclusive: 31.6 µM [inhibitor, partial curve, poor fit].
